Source: patent publication US6693174B2, “Gene regulating aureobasidin sensitivity” (Takara Shuzo Co., Ltd., priority 1993, dated 2004)
*1 amine or outer side, *2 acyl side, *3 side chain or, on linkers, in order; H or OH if unused. Where a SMILES comes first, the peptide text is derived from it. [ ]: non-standard residue; d: D form. X1 = CC[C@@H](C)[C@@H](O[*:1])C(=O)[*:2]; NMeVal(β-OH) = CN[C@H](C(=O)O)C(C)(C)O; NMeF = CN[C@@H](Cc1ccccc1)C(=O)O; aIle = CC[C@@H](C)[C@H](N)C(=O)O; NMeV = CN[C@H](C(=O)O)C(C)C

System: Sake yeast Kyokai K-701 transformants
Assay: Aureobasidin A resistance of sake yeast transformants obtained with StuI-linearized plasmids
Conditions: transformant obtained by using the linearized pUscaur1R-C

Compound: CC[C@@H](C)[C@@H]1NC(=O)[C@@H]2CCCN2C(=O)[C@H](Cc2ccccc2)N(C)C(=O)[C@H](Cc2ccccc2)NC(=O)[C@H](C(C)C)N(C)C(=O)[C@@H]([C@H](C)CC)OC(=O)[C@H](C(C)(C)O)N(C)C(=O)[C@H](CC(C)C)NC(=O)[C@H](C(C)C)N(C)C1=O [aureobasidin A] (cyclo(F[NMeF]P[aIle][NMeV]L[NMeVal(β-OH)][X1][NMeV]))
- MIC to aureobasidin A: ≥ 20 µg/mL
